# This is one part of the list. Many values rest on one well or one pass, so single values are uncertain.
# How the values were obtained:
# Assay in all cases: cell count relative to DMSO control; melanoma cells; higher = more viable cells
# Conditions in all cases: library dose: standard library concentration; 72 h
# [1] = system: A101D
# [2] = system: A2058
# [3] = system: A375
# 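Note: cells treated in 1,536-well plates, then fixed and DAPI-stained, with nuclei counted from automated high-throughput microscope images.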
SMILES,cell count [1] [%],cell count [2] [%],cell count [3] [%]
"NC(=O)c1ccc(N(C(N)=O)c2c(F)cccc2F)nc1-c1ccc(F)cc1F + O=C(O)c1ccc(-c2c[nH]c3ncc(-c4ccccc4)cc23)cc1C1CCCC1 [GSK650394] (first compound 2 µM, partner dose 0.8 µM)",92.1,119,106
"Cc1ccc(NC(=O)c2cccc(N(C)C)c2)cc1NC(=O)c1ccc(O)cc1 + Cc1cc(N2CCOCC2)cc2[nH]c(-c3c(NC[C@@H](O)c4cccc(Cl)c4)cc[nH]c3=O)nc12 [BMS536924] (first compound 10 µM, partner dose 1 µM)",96.9,94.2,121
"NC(=O)c1ccc(N(C(N)=O)c2c(F)cccc2F)nc1-c1ccc(F)cc1F + C=CCNC1=C2C[C@@H](C)C[C@H](OC)[C@H](O)[C@@H](C)/C=C(\C)[C@H](OC(N)=O)[C@@H](OC)/C=C\C=C(/C)C(=O)NC(=CC1=O)C2=O [Tanespimycin] (first compound 2 µM, partner dose 0.01 µM)",77.2,94,63.6
"CC(C)(C)c1cnc(CSc2cnc(NC(=O)C3CCNCC3)s2)o1 + CN(C)S(=O)(=O)c1ccc2c(c1)/C(=C/c1cc3c([nH]1)CCCC3)C(=O)N2 [SU6656] (first compound 0.05 µM, partner dose 2 µM)",67,77.2,126
"NC(=O)c1ccc(N(C(N)=O)c2c(F)cccc2F)nc1-c1ccc(F)cc1F + CCc1ccc(CCOc2ccc(CC3SC(=O)NC3=O)cc2)nc1 [pioglitazone] (first compound 2 µM, partner dose 10 µM)",89.5,111,116

# From the supplement of paper PMC4604168 (melanoma cell lines)
